Consider 85 molecules from PubChem BioAssay AID1645887 (National Center for Advancing Translational Sciences (NCATS), 2021).

Several values for one entry are separate records, joined by “and”; a condition that tells them apart may be missing. Equal entries are not always repeated. About 40 (0.2%) of roughly 16,000 compounds were called active. Inconclusive results (about 1%) are left out. The call rests on the fitted dose curve; in most records, active means well fitted activation curve with a large enough effect; inconclusive means small, poorly fitted or top-dose-only effect, or another doubt; inactive means no such curve, though single readings can be large or run the other way. The list shows a part of the results.
On the % scale 0 is the no-effect control and ±100 the full control effect.

This assay addresses Rap guanine nucleotide exchange factor 4 (Homo sapiens) (UniProt Q8WZA2). As to the kind of experiment: Validation qHTS for agonist of cAMP-regulated guanine nucleotide exchange factor 4 (EPAC2).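 Further: exchange makes BODIPY-GDP fluorescence drop when released from Rap1B; series mostly up to about 150 µM.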 The settings on record: EPAC2 Rap1B BODIPY-GDP exchange, fluorescence; activation: stronger effect = higher value. A digest of the protocol: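 Fluorescent exchange assay: 100 nM EPAC2 with 250 nM RAP1B-BODIPY-GDP and 50 uM GDP; compound added, 5 min at room temperature, then read (ex 480/em 540 nm) every 5 min for 30 min. Normalized to 6.5 mM cAMP agonist control.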
Chain of UniProt Q8WZA2 (Q8WZA2 whole entry, looked up): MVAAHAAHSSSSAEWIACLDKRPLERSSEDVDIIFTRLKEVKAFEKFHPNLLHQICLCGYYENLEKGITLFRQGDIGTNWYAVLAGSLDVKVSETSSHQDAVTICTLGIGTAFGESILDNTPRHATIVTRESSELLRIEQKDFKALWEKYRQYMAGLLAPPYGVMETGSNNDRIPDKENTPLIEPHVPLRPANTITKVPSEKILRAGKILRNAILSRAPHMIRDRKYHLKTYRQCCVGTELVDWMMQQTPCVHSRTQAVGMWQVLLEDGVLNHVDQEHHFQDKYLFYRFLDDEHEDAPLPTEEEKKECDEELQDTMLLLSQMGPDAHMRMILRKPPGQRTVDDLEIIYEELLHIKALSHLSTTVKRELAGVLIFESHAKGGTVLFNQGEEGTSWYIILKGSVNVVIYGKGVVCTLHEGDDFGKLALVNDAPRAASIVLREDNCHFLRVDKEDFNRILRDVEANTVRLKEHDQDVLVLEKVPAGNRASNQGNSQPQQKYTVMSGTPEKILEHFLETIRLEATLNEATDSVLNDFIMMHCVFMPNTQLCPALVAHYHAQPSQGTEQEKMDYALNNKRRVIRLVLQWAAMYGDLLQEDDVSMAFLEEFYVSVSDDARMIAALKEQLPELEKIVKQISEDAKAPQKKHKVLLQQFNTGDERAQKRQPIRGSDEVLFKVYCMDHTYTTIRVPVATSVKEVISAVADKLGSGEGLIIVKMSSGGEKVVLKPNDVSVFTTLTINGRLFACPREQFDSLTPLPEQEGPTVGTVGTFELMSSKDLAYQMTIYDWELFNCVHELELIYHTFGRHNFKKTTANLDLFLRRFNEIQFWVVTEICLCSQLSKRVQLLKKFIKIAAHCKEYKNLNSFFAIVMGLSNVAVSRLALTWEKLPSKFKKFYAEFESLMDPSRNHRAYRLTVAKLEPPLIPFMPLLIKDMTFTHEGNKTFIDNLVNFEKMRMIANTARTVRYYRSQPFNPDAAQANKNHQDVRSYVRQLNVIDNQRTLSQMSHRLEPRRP
As to `NC(=NCCCC(N)C(=O)O)N[N+](=O)[O-]` (stereo not given), the activation was inactive: -8.68%.

As to `CNC(=O)Oc1ccccc1C(=O)Nc1ccccc1`, the activation was inactive: -1.5%.

As to `C=CCC1([C@H](C)CCC)C(=O)NC(=O)NC1=O`, the activation is inactive: -11.9%.

As to `O=[N+]([O-])c1ccc(O)c([N+](=O)[O-])c1`, the activation is inactive: -22.9%.

Take `COC1=C[C@]23CCCN2CCc2cc4c(cc2[C@@H]3[C@@H]1O)OCO4`: the activation is inactive: -19.1%.

Turning to `CN1CCCC2(CCN(C(=O)c3csnn3)CC2)C1`, the activation was inactive: -21.6%.

With `O[C@@H](Cc1ccncc1)C(Cl)(Cl)Cl`, the activation was inactive: -13.6%.

Take `CC(=O)OC1CC2C(C)(C)C(=O)C=C[C@]2(C)C2CC[C@]3(C)C(=CC(=O)OC3c3ccoc3)[C@]12C` (stereo not given in full): the activation is inactive: 8.24%.

With `CN1CCN(c2ccc3ccccc3n2)CC1`, the activation is inactive: -12.5% and inactive: 10.7%.

Turning to `CCn1cnc2c(Nc3cccc(Cl)c3)nc(N[C@@H]3CCCC[C@@H]3N)nc21`, the activation was inactive: -9.27%.

With `CN1[C@@H]2CC[C@H]1CC(OC(c1ccc(F)cc1)c1ccc(F)cc1)C2` (stereo not given in full), the activation is inactive: 5.03%.

Turning to `C=CC1CN2CCC1CC2C(O)c1ccnc2ccccc12` (stereo not given), the activation is inactive: -7.61% and inactive: 5.08%.

In the case of `C[C@H]1CCCC=CC2C[C@H](O)C[C@@H]2[C@H](O)C=CC(=O)O1` (stereo not given in full), the activation was inactive: -17%.

With `CCC(C)C(=O)OC1C[C@@]2(C)C(c3ccoc3)OC(=O)CC23OC2(C)OC34C(OC(=O)C(C)C)[C@]3(O)C(OC(=O)C5(C)OC5C)[C@]5(C)CC3(O)[C@](C)(C5CC(=O)OC)C14O2` (stereo not given in full), the activation was inactive: -31.7%.

Take `C=C1[C@@H](O)C2C=CC[C@H](C)C(=O)[C@@](C)(O)C=C[C@@H](OC(C)=O)[C@@]23C(=O)N[C@H](Cc2ccccc2)[C@@H]3[C@@H]1C` (stereo not given in full): the activation is inactive: -11.4%.

Turning to `CN[C@@H](Cc1c[nH]c2ccccc12)C(=O)O`, the activation was inactive: 1.62%.

Consider `CCOP(=O)(NC(C)C)Oc1ccc(SC)c(C)c1` (stereo not given), for which the activation was inactive: -15.6%.

As for `CC1OC(C)OC(C)O1` (stereo not given), the activation is inactive: 5.62% and inactive: 6.55%.

`S=C(SSC(=S)N1CCCCC1)N1CCCCC1`: the activation is inactive: -5.28%.

Consider `CCCCCCCCCC[N+](C)(C)CCCCCCCCCC`, for which the activation was inactive: -28.8%.

Consider `Nc1ccc([As](=O)(O)O)cc1`, for which the activation was inactive: 2.63%.

In the case of `C[C@]12CC[C@H]3[C@@H](CCC4=C(O)C(=O)CC[C@@H]43)[C@@H]1CC[C@@H]2OC(=O)CCC1CCCC1`, the activation was inactive: -0.751%.

In the case of `NCCc1c[nH]c2ccc(C(N)=O)cc12`, the activation is inactive: -12.8% and inactive: 7.53% and inactive: -7.14%.

With `COP(=S)(OC)Oc1cc(Cl)c(Cl)cc1Cl`, the activation was inactive: -9.54% and inactive: -6.58%.

For the molecule `COc1cc2occc2c2oc(=O)ccc12`, the activation is inactive: -2.12% and inactive: -20%.

With `C[C@@]12CCC3C(CCC4=CC(=O)CC[C@]43C)C1CCC2O` (stereo not given in full), the activation was inactive: -23.8%.

On to `CC1=C2C3OC(=O)C(C)C3CC[C@@]2(C)C=CC1=O` (stereo not given in full), for which the activation is inactive: -4.6%.

In the case of `Oc1ccc2c3c1O[C@H]1c4oc5ccccc5c4C[C@]4(O)[C@H](C2)N(CC2CC2)CC[C@@]314`, the activation is inactive: -1.57%.

Regarding `CN1C(=O)C(O)N=C(c2ccccc2)c2cc(Cl)ccc21` (stereo not given), the activation was inactive: -2.33%.

Take `O=C(NC1CCCCC1)[C@@H]1CC=C[C@@H]2CCN(Cc3ccccc3)C(=O)[C@@H]21`: the activation was inactive: -18%.

Take `O=S(=O)(O)C(F)(F)C(F)(F)C(F)(F)C(F)(F)F`: the activation was inactive: 4.13%.

Consider `COc1ccc(C2Oc3c(I)c(OC)cc(OC)c3CC2O)cc1OC` (stereo not given), for which the activation is inactive: -2.98%.

For `Cc1ccc(C(=O)CN2CCOCC2)cc1`, the activation is inactive: -4.85%.

For the molecule `CCOC(=O)[C@]12Cc3cc(OC)c(OC)cc3[C@H]1N(Cc1ccccc1)C(=O)c1ccccc12`, the activation was inactive: -18%.

Turning to `CCCCCCCCC(=O)NCc1ccc(O)c(OC)c1`, the activation is inactive: -21.2% and inactive: -47.5%.

For `COc1ccc2c(C(=O)c3ccc(Cl)cc3)c(C)n(CC(=O)O)c2c1`, the activation was inactive: -6.61%.

Turning to `COC(COC(N)=O)C1=C(N2CC2)C(=O)C(C)=C(N2CC2)C1=O` (stereo not given), the activation was inactive: -2.06%.

On to `NC(C(=O)O)c1cc(=O)[nH]o1` (stereo not given), for which the activation is inactive: 3.53% and inactive: -4.14%.

Turning to `CCC(C(N)=O)N1CCCC1=O` (stereo not given), the activation is inactive: -18.4%.

As for `CCCCCCCCCCCC[N+](C)(C)CCOc1ccccc1`, the activation is inactive: -32.7%.

As for `C[N+]1([O-])[C@@H]2CC[C@H]1CC(OC(=O)C(CO)c1ccccc1)C2` (stereo not given in full), the activation is inactive: 13.3% and inactive: 5.79%.

Turning to `CC(C)(c1ccc(OC[C@@H]2CO2)cc1)c1ccc(OC[C@H]2CO2)cc1`, the activation is inactive: -34.2%.

For `Nc1ccc(CCN2CCN(c3cccc(C(F)(F)F)c3)CC2)cc1`, the activation is inactive: 2.03% and inactive: -11.8%.

In the case of `COc1cccc2c1cc([N+](=O)[O-])c1c(C(=O)O)cc3c(c12)OCO3`, the activation was inactive: -5.26% and inactive: -7.82% and inactive: 0.442%.

In the case of `CC(C)NCC(O)c1ccccc1Cl` (stereo not given), the activation was inactive: 20.7%.

Regarding `CC(=O)NCCc1c[nH]c2ccccc12`, the activation was inactive: -0.276% [middle of 4 runs].

On to `CC[N+](C)(CC)CCOC(=O)C(O)(c1ccccc1)c1ccccc1`, for which the activation is inactive: -4.14%.

For the molecule `O=C(Nc1ccccc1-c1ccc(Cl)cc1)c1cccnc1Cl`, the activation was inactive: -22.5%.

Consider `COc1ccc(/C=C/c2cc(O)cc(O)c2)cc1`, for which the activation is inactive: -15.2%.

Turning to `O[C@H]1CCCC[C@H]1N1CCC(c2ccccc2)CC1`, the activation was inactive: -4.75%.

`O=c1ccc2[nH]cc(C3=CCNCC3)c2[nH]1`: the activation is inactive: -17.9%.

Take `C=CCN1CC[C@]23CCCC[C@H]2[C@H]1Cc1ccc(O)cc13`: the activation is inactive: -13.4%.

In the case of `c1ccc(N2CC[C@@]3(CCCNC3)C2)cc1`, the activation is inactive: -3.95%.

Take `FC(F)(F)c1cccc(C2=CCN(CCc3ccc4ccccc4c3)CC2)c1`: the activation was inactive: 7.11%.

On to `CC(C)c1ccc2c(c1O)CCC1C3=C(CC[C@]21C)C(=O)OC3` (stereo not given in full), for which the activation was inactive: -28.4%.

Consider `ClC1=C(Cl)C2(Cl)C(CBr)CC1(Cl)C2(Cl)Cl` (stereo not given), for which the activation was inactive: -1.27%.

Regarding `CC(=O)[O][Hg][c]1ccccc1`, the activation was inactive: -13.9%.

With `CC(=O)Oc1ccc2c3c1O[C@H]1[C@@H](OC(C)=O)C=C[C@H]4[C@@H](C2)N(C)CC[C@@]341`, the activation is inactive: -7.42% and inactive: 2.91%.

With `CC(=O)O[C@H]1C[C@H](O[C@H]2[C@@H](O)C[C@H](O[C@H]3[C@@H](O)C[C@H](OC4CC[C@@]5(C)C(CC[C@@H]6[C@@H]5CC[C@]5(C)[C@@H](C7=CC(=O)OC7)[C@@H](O)C[C@]65O)C4)O[C@@H]3C)O[C@@H]2C)O[C@H](C)[C@H]1O[C@@H]1O[C@H](CO)[C@@H](O)[C@H](O)[C@H]1O` (stereo not given in full), the activation is inactive: -6.67%.

For `CCN(CCO)CCn1c(Cc2ccccc2)nc2c1c(=O)n(C)c(=O)n2C`, the activation was inactive: 5.03%.

`NCC[C@H](O)C(=O)N[C@@H]1C[C@H](N)[C@@H](O[C@H]2O[C@H](CN)[C@@H](O)[C@H](O)[C@H]2N)[C@H](O[C@@H]2O[C@H](CO)[C@@H](O)[C@H]2O)[C@H]1O`: the activation is inactive: -6.38%.

`C=CCOC(Cn1ccnc1)c1ccc(Cl)cc1Cl` (stereo not given): the activation was inactive: -21.4%.

As for `CC(=O)Nc1cc([As](=O)(O)O)ccc1O`, the activation was inactive: 7.36%.

With `O=C(O)/C=C/CO`, the activation is inactive: -6.7% and inactive: -11.7%.

Regarding `CCCN1CC[C@@H]2c3cc(O)ccc3CC[C@@H]21`, the activation was inactive: -18.1%.

On to `NC(=NCc1ccc(Cl)cc1)SCCCc1cnc[nH]1`, for which the activation was inactive: -19%.

On to `COc1ccc2c3c1O[C@H]1C(=O)CC[C@H]4[C@@H](C2)N(C)CC[C@]314`, for which the activation is inactive: 3.3%.

`COc1c(CC=C(C)C)c2c(c3oc(=O)c(-c4ccc(O)cc4)c(O)c13)C=CC(C)(C)O2`: the activation was inactive: -10.8%.

`c1csc(CN2CC3(CCNCC3)C2)n1`: the activation is inactive: -21.3%.

Consider `C=C[C@H]1CN2CC[C@H]1C[C@H]2c1[nH]c2ccccc2c1CCO`, for which the activation was inactive: 2.57%.

For the molecule `C#CCN(C)[C@H](C)Cc1ccccc1`, the activation was inactive: -5.95% and inactive: -0.841% and inactive: -6.72%.

With `O=C(Nc1ccc(Br)cc1)c1cc(Br)cc(Br)c1O`, the activation was inactive: -15%.

For the molecule `COc1cc(C[C@H](C)N)c(OC)cc1C`, the activation is inactive: -8.61%.

`c1ccc(CCN2CCCCC2)cc1`: the activation was inactive: -21.1%.

On to `NCCc1ccccc1`, for which the activation is inactive: -2.88%.

Turning to `C[C@@H]1O[C@@H](O[C@@H]2C=C3CC[C@@H]4[C@H](CC[C@]5(C)[C@@H](c6ccc(=O)oc6)CC[C@]45O)[C@@]3(C)CC2)[C@H](O)[C@H](O)[C@H]1O`, the activation is inactive: -5.39%.

In the case of `CNCC/C=C\c1cccnc1`, the activation is inactive: -12.1%.

For the molecule `CCc1c(C(=O)OC)ncc2[nH]c3cc(OC)c(OC)cc3c12`, the activation was inactive: -3.11%.

`O[C@@H]1CCCN2C[C@@H](O)[C@@H](O)C12` (stereo not given in full): the activation was inactive: -1.66%.

Regarding `O=C1Nc2ccc(Cl)cc2C(c2ccccc2)=NC1O` (stereo not given), the activation was inactive: -9.49% and inactive: -7.92%.

Turning to `COc1ccc2c(c1)[C@@]13CCCCC1[C@@H](C2)N(C)CC3` (stereo not given in full), the activation is inactive: 2.88%.

For `CC(N)c1cccc(Cl)c1Cl` (stereo not given), the activation was inactive: -6.34%.

In the case of `CC(C)(O)[C@@H]1C2OC(=O)[C@@H]1[C@]1(O)C[C@H]3O[C@]34C(=O)O[C@H]2[C@]14C`, the activation is inactive: -6.02%.

Consider `Cc1noc(C)c1C(=O)N1CCC[C@@]2(CCN(CC(C)C)C2)C1`, for which the activation was inactive: -14.3%.

On to `C=C1C2C[C@]3(C4CC5[C@@]6(C)CC[C@H](O)[C@@]5(C3CC2=O)C4[N+]([O-])(CC)C6)[C@@H]1O` (stereo not given in full), for which the activation is inactive: -15.8%.
